# According to publication PMC4336329 (PLoS ONE, 2015):
# The whole screen tested about 310,000 compounds, of which about 14,000 (4.5%) showed an effect of 50% or more. The effect is printed as a negative number. The list shows a part of the results.
# Biological target: human ether-à-go-go-related gene (hERG) potassium channel (human, UniProt Q12809)
# Assay: primary screen, population patch clamp on CHO cells stably expressing hERG
# 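Further: peak tail current of the secondary pulse compared with the same well before compound.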
# Chain of human ether-à-go-go-related gene (hERG) potassium channel (Q12809 whole entry, looked up): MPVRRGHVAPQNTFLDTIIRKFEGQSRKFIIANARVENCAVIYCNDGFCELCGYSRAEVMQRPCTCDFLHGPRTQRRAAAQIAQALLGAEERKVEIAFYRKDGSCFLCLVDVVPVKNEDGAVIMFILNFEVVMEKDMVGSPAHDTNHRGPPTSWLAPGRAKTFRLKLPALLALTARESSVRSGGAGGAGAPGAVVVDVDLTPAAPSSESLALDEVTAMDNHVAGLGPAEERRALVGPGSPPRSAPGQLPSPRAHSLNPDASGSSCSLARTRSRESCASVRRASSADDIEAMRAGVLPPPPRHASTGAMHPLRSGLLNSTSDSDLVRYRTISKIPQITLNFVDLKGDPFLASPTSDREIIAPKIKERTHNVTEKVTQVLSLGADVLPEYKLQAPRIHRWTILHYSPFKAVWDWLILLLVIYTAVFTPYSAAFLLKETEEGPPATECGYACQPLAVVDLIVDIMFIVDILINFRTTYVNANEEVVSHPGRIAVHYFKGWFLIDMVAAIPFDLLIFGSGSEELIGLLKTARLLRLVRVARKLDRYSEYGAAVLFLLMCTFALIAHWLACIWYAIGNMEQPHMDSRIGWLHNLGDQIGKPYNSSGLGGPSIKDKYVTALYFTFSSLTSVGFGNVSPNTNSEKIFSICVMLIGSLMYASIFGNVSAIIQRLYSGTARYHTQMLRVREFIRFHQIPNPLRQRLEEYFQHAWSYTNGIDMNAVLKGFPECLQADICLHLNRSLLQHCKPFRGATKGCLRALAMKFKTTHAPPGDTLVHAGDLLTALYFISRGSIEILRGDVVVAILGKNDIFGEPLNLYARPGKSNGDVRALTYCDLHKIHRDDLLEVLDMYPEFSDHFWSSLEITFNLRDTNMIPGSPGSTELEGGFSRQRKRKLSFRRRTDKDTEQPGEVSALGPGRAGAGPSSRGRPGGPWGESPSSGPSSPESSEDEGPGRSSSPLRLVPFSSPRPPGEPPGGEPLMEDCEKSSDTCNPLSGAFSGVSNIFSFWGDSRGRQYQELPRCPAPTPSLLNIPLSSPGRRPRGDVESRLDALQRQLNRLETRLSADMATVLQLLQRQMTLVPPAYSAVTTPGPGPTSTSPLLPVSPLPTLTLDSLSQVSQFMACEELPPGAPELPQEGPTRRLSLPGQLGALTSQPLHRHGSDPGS
row,SMILES,"hERG current change (%, negative = inhibition) at 10uM"
1,COc1ccc(NC(=O)C2C3C=CC4(O3)C2C(=O)N(CCCN2CCCC(C)C2)C4C(=O)NC2CCCCC2)cc1 (centres unmarked),18.6%
2,Cc1nc(Nc2ccc3c(c2)OCCO3)c2nnn(Cc3ccccc3Cl)c2n1,-6.92%
3,COc1ccc(C(=O)NCC(=O)N2CCN(c3ccc(Cl)cc3)CC2)cc1,6.79%
4,N#Cc1ccc(S(=O)(=O)N2CCN(c3ncccn3)CC2)cc1,-17.9%
5,CCCc1nc(NCc2ccccc2)c(C#N)c2c1CCCC2,10%
6,CCOc1ccc(OCC)c(-c2c(=O)n(OCc3ccccc3Br)c3ccccc3[n+]2[O-])c1,1.92%
7,COc1ccc(OC)c(NC(=O)c2cccc(S(=O)(=O)N(Cc3ccccc3)c3ccccc3OC)c2)c1,3.52%
8,CN(C)C(CNC(=O)C1CCN(S(=O)(=O)c2ccccc2)CC1)c1ccccc1 (centres unmarked),-1.15%
9,Cc1cc(CSc2ccccc2)ccc1NC(=O)c1ccc(Cl)c([N+](=O)[O-])c1,6.91%
10,CCCN(CC(=O)Nc1ccccc1OC)C(=O)c1ccc(COc2ccccc2)o1,-26.5%
11,O=C(NCc1ccco1)Nc1ccccc1Cl,-5.31%
12,COc1ccccc1N1CCN(c2cc(=O)n(-c3ccc(Cl)cc3)c(=O)[nH]2)CC1,19.8%
13,CCC(=O)N1CCC2(CC1)Oc1ccc(Cl)cc1C(=O)C21CC(c2cccnc2)=NO1 (centres unmarked),-15.1%
14,CCN(CC)S(=O)(=O)c1ccc(NC(=O)COC(=O)CNS(=O)(=O)/C=C/c2ccccc2)cc1,-30%
15,Cc1ccc(S(=O)(=O)N2CCN(C(=O)COC(=O)CCc3ccccc3)CC2)c(C)c1,-8.38%
16,CCC1CCCCN1CC(=O)c1c(C)[nH]c2cc(C)ccc12 (centres unmarked),-27.7%
17,O=C(O)C1C2CCC(O2)C1C(=O)Nc1cccc(Cl)c1 (centres unmarked),-2.22%
18,COc1ccccc1C(=O)N/N=C/c1c[nH]c2ccccc12,1.12%
19,Cc1cc(C)cc(OCc2nnc(SCC(=O)Nc3ccccc3)o2)c1,-6.76%
20,COc1ccccc1NC(=O)CSc1nnc(-c2ccc(NC(C)=O)cc2)n1C,8.64%
21,O=C(COC(=O)c1cc([N+](=O)[O-])ccc1N1CCOCC1)Nc1ccc(Cl)cn1,-61.5%
22,N/C(=N\OC(=O)CCC1CCCC1)c1ccccn1,-17.1%

row,SMILES,"hERG current change (%, negative = inhibition) at 10uM"
1,COc1ccc(/C=N/NC(=O)COc2cc(C)cc(C)c2)cc1COC(C)=O,-0.00242%
2,Cc1cccc(C(=O)N2CCC(c3nc4ccccc4s3)CC2)c1,-33.7%
3,CCOC(=O)c1sc2nc(C)n(CC(=O)NCC3CCCO3)c(=O)c2c1C (centres unmarked),0.179%
4,CN1CCN(C(=O)c2ccc3c(c2)N(C)C(=O)/C(=C/c2cccc(Cl)c2)S3)CC1,-55.1%
5,O=C(COC(=O)CCS(=O)(=O)c1ccc(Cl)cc1)NC1CCCCC1,-4.25%
6,Nc1nnc(SCc2nc3scc(-c4ccccc4)c3c(=O)[nH]2)s1,6.26%
7,CCN1CCN(C(CNS(=O)(=O)c2ccc(Cl)cc2)c2ccccc2)CC1 (centres unmarked),-69.5%
8,c1ccc2c(NC3C4CC5CC(C4)CC3C5)nc(N3CCOCC3)nc2c1 (centres unmarked),-35.1%
9,Cc1ccc(C(=O)N2CCN(c3ccccn3)CC2)cc1Cl,-3.65%
10,CN(C)c1ccc(NC(=O)c2cccc(C(=O)Nc3ccc(N(C)C)cc3)n2)cc1,-10.4%
11,CNc1nc2c3ccccc3n(C(C)=O)c2s1,4.94%
12,CC1CCC2(CC1)NC(CO)(CO)CO2 (centres unmarked),7.16%
13,CCc1ccc(NC(=O)COC(=O)/C=C/c2c(C)nn(C3CCS(=O)(=O)C3)c2Cl)cc1 (centres unmarked),1.41%
14,COc1ccccc1CNC(=O)C(=O)NCC1OCCN1C(=O)c1cccs1 (centres unmarked),3.96%
15,Cc1ccc(OCC(=O)N2CCCC(CCC(=O)N(C)CCc3ccccn3)C2)cc1 (centres unmarked),-9.48%
16,O=C(NN1C(=O)NC2(CCCCC2)C1=O)c1ccc(Cl)c(Cl)c1,-46.2%
17,COc1ccc(C2c3c(oc4ccccc4c3=O)C(=O)N2c2ccc(C)cn2)cc1OC (centres unmarked),-17.5%
18,CN1CCN(CCC(=O)Nc2cccc(F)c2)CC1,-1.22%
19,COC(=O)c1ccc(COC(=O)Cc2n[nH]c(=O)c3ccccc23)cc1,-1.24%
20,O=c1[nH]c(SCc2cccc(Cl)c2)nc2[nH]ncc12,12.6%
21,O=C1c2ccccc2C(Nc2ccc3c(c2)OCCO3)N1Cc1ccc2c(c1)OCO2 (centres unmarked),-11.3%
22,Nc1nc(Sc2c([N+](=O)[O-])cc(C(F)(F)F)cc2[N+](=O)[O-])n[nH]1,3.04%

row,SMILES,"hERG current change (%, negative = inhibition) at 10uM"
1,OCCCC1CCCCN1Cc1nc(Cc2ccccc2Cl)no1 (centres unmarked),-78.9%
2,Cc1cc(C)cc(OCC(=O)N(Cc2ccco2)c2c(N)n(Cc3ccccc3)c(=O)[nH]c2=O)c1,-5.98%
3,COc1ccc(N2C(=O)C3ON(C4SC(=S)N(C)C4(C)C)C(c4ccc(Cl)cc4)C3C2=O)cc1 (centres unmarked),0.115%
4,CC1(C)CC2CC(C)(CN2/C=N/c2sc3c(c2C#N)CC(C)(C)NC3(C)C)C1 (centres unmarked),-20.9%
5,O=[N+]([O-])c1ccc(S(=O)(=O)N/N=C/c2cccs2)cc1,14.9%
6,c1ccc(Oc2nc3ccccc3n3cccc23)cc1,3.96%
7,O=C(O)COCC(=O)Nc1ccc2c(c1)ncn2CCc1ccccc1,15.4%
8,CCn1c(C)[n+](CC)c2ccc(S(=O)(=O)NC)cc21.[I-],19.5%
9,Cc1cccc(C)c1NC(=O)C(=O)NCCOc1ccc(Cl)cc1,-26%
10,COc1c(C)cc(C(=O)C2CCCN(C(=O)c3cc4nc(C)cc(C)n4n3)C2)cc1C (centres unmarked),-30.8%
11,COCCn1c(C)cc(C(=O)CSc2cc(C)c3ccc(OC)cc3n2)c1C,7.43%
12,COc1cc(SC)ccc1C(=O)NC1CCCCC1,-10.4%
13,COc1ccc(OC)c(-c2cnc(OC(C)(C)C)nc2OC(C)(C)C)c1,32.5%
14,Cc1ccc(C(=O)NCCC(=O)N2CCCC2)cc1,9.95%
15,CCOC(=O)C1(Cc2ccccc2C(F)(F)F)CCN(Cc2ccon2)CC1,-2.88%
16,Cn1nc(C(F)(F)F)c(-c2ccc(Br)cc2)c1NC(=O)c1ccco1,-63.5%
17,COCC(C)NC(=O)COc1nncc2ccccc12 (centres unmarked),5.65%
18,COC(=O)Cc1cc(=O)[nH]c(/N=C(\N)Nc2ccc(C)cc2)n1,2.56%
19,Cc1ccc(C)c(N2CCN(C(=O)Cc3c(C(=O)O)[nH]c4ccc(Cl)cc34)CC2)c1,10.1%
20,COc1ccc(OC)c(NCc2nnc(-c3ccccc3)o2)c1,13.9%
21,COC(=O)Cn1c(=O)c2c(nc3n2CC(C)CN3c2ccc(C)c(C)c2)n(C)c1=O (centres unmarked),-8.82%
22,CCN1CCN(c2ccc(N)c(C)c2)CC1,2.36%

row,SMILES,"hERG current change (%, negative = inhibition) at 10uM"
1,CCOC(=O)c1cc(C#N)c(N)nc1C,-3.66%
2,CCCN1CCN(CCCNC(=O)CN2C(=O)c3cccnc3Oc3ccc(Cl)cc32)CC1,0.74%
3,C/C(=N\NC(=O)c1cccc(S(=O)(=O)N2CCCC2)c1)c1ccco1,14.1%
4,c1ccc(-c2nc(C3CCCCC3)c3ccccc3n2)cc1,10.7%
5,CCCN1CCN(S(=O)(=O)c2ccc3c(c2)CCC(=O)N3)CC1,-11.2%
6,CCNc1nc(OC)nc(N(OC)S(=O)(=O)c2ccc(C)cc2)n1,0.0662%
7,CC(=O)N1CC=CC1(C)C(=O)NCc1cc(F)cc(C(F)(F)F)c1 (centres unmarked),9.74%
8,O=C(NCC1CCCO1)c1nnc(Cc2ccc(F)cc2)o1 (centres unmarked),10.4%
9,COc1ccc(-n2nnnc2CNC(=O)c2ccc3ccccc3c2)cc1,-45.3%
10,CCOC(=O)N1CCC(N2CCN(S(=O)(=O)c3ccc(Cl)cc3)CC2)CC1.O=C(O)C(=O)O,-45.7%
11,COc1ccc([N+](=O)[O-])cc1NC(=O)C(C)OC(=O)c1ccccn1 (centres unmarked),-7.61%
12,COc1ccccc1/C=C/C=N/Nc1cccc(C(=O)O)c1,16.7%
13,NC(=O)NC(=O)COC(=O)c1ccccc1OCc1ccc(F)cc1,5.58%
14,O=C1c2c(O)cc(O)cc2O[C@H](c2ccc(O)c(O)c2)[C@H]1O,1.86%
15,CC(C)CC1(C(=O)NCCc2c[nH]c3ccccc23)C=CCN1C(=O)c1ccccc1 (centres unmarked),0.564%
16,O=C1CCc2cc(S(=O)(=O)NC3CCCCC3)cc3c2N1CC3,1.44%
17,COc1ccccc1-c1nnc(NC(=O)CCS(=O)(=O)c2ccccc2)o1,5.3%
18,Cc1cc(C)cc(OC(=O)CS(=O)c2ccc(C(F)(F)F)cc2[N+](=O)[O-])c1 (centres unmarked),-2.9%
19,CC1CCN(C(=S)NC2CCCCC2)CC1,-9.81%
20,Cc1ccccc1Nc1ccc2nonc2c1[N+](=O)[O-],10.7%
